Experimental findings from ChEMBL document CHEMBL4888484, “Replenishing the malaria drug discovery pipeline: Screening and hit evaluation of the MMV Hit Generation Library 1 (HGL1) against asexual blood stage Plasmodium falciparum ,using a nano luciferase reporter read-out” (2022) are described below.

The whole screen tested about 150,000 compounds, of which about 540 (0.36%) showed an effect of 50% or more. Some of the results follow.

For the assay, the system named is Plasmodium falciparum. Kind of assay: Primary screen in NF54 nanoGlo assay, in single point, at 2uM, 72h; a lower Z score goes with more inhibition. In kind it is functional, Erythrocyte. The settings on record: timepoint 72 hour.
Regarding `COCCN(CCC(=O)NCc1ccccc1)c1nc(-c2ccco2)nc2cc(Cl)ccc12`, the “% Inhibition” value was -4% and the Z score amounted to 0.44.

On to `COCCc1noc(C[C@H]2CCOC3(CCN(C(=O)C4CCC4)CC3)C2)n1`, for which the “% Inhibition” value is reported as -8% and the Z score was found to be 1.08.

Consider `CCn1cc([C@@H]2CS(=O)(=O)CCN2Cc2cc(C)on2)cn1`, for which the “% Inhibition” value is -8% and the Z score came to 1.36.

For the molecule `CN(Cc1ccc2ccn(C)c2c1)C[C@H]1CCCCO1`, the “% Inhibition” value is -2% and the Z score was 0.4.

As for `O=C(C1CCCC1)N1CC(CN2CCCCC2)C(c2cccc(C(F)(F)F)c2)C1` (stereo not drawn), the “% Inhibition” value is -2% and the Z score was determined as 0.41.

Take `CC(NS(=O)(=O)CC1CCCCO1)c1nncn1C` (stereo not drawn): the “% Inhibition” value is reported as 1% and the Z score was -0.11.

As for `Cc1ccc(S(=O)(=O)N2CCN=C2N2CCCCC2)cc1C`, the “% Inhibition” value is on record as -6% and the Z score came to 0.75.

`O=C(C1CCCCCC1)N1CCC(n2cc(-c3ccsc3)nn2)CC1`: the “% Inhibition” value is reported as -27% and the Z score is given as 2.45.

For `O=C(c1cc(-c2ccccc2)c(N2CCCCCC2)s1)N1CCCCC1`, the “% Inhibition” value is given as -12% and the Z score is recorded as 1.49.

As to `COc1cccc([C@H]2CN(C(=O)c3c(-c4ccccc4)noc3C)C[C@@H]2N)c1`, the “% Inhibition” value is listed as -6% and the Z score came to 0.99.

In the case of `Cc1occc1C(=O)N1CCc2[nH]c(-c3cn[nH]c3)nc2C1`, the “% Inhibition” value is -1% and the Z score was 0.14.

Take `Cc1nn(-c2ccc(Cl)c(Cl)c2)c(NC(=O)N2CCC(CO)CC2)c1C`: the “% Inhibition” value is -2% and the Z score came out at 0.35.

For the molecule `C[C@H](OC1CCCCCC1)C(=O)NC1(C#N)CCOCC1`, the “% Inhibition” value is on record as -2% and the Z score was found to be 0.24.

With `COCCN(C)CC(=O)Nc1nccn1C`, the “% Inhibition” value is recorded as 0% and the Z score is on record as -0.04.

Take `Cc1cc(OCC(=O)Nc2ccc(Cl)cc2)nc2c1c(-c1ccccc1)nn2-c1ccccc1`: the “% Inhibition” value is given as -2% and the Z score was determined as 0.33.

On to `O=S(=O)(c1cc(Cl)c(Cl)s1)N1[C@H]2CCNC[C@@H]1CC2`, for which the “% Inhibition” value is -4% and the Z score is on record as 0.68.

As for `O=C(N[C@@H](Cc1ccccc1)C(=O)N1CCC2(CC1)NCCc1[nH]cnc12)c1cccc(Br)c1`, the “% Inhibition” value is recorded as 7% and the Z score is listed as -0.91.

Take `COc1cc2c(cc1OC)CN(C(=O)c1cccc3[nH]ccc13)CC2`: the “% Inhibition” value is given as -13% and the Z score was 1.64.

Consider `CC(C)(C)[C@H](NCC(=O)NC1(C#N)CCCC1)c1cccs1`, for which the “% Inhibition” value was found to be 3% and the Z score is given as -0.61.

As for `CN(Cc1ccoc1)C(=O)[C@@H]1[C@H]2[C@@H]3CC[C@@H](C3)[C@@H]12`, the “% Inhibition” value was -9% and the Z score turned out to be 0.87.

As to `O=C(NCc1cccc(Cl)c1Cl)N1C[C@H](O)[C@@H](N2CCCC2)C1`, the “% Inhibition” value is 6% and the Z score is listed as -1.21.

Take `Nc1ncnc2c1ncn2CC(=O)NC1CCC2(CCCCC2)CC1`: the “% Inhibition” value was 16% and the Z score is recorded as -1.92.

Regarding `Cc1ccc(-c2ccc3c(c2)C=C(C(=O)Nc2ccc(F)cc2)CO3)cc1`, the “% Inhibition” value is given as -9% and the Z score was found to be 0.95.

In the case of `CCOCCCC(=O)Nc1c[nH]nc1C(F)(F)F`, the “% Inhibition” value was -5% and the Z score turned out to be 0.54.

`COc1ccc(OC)c(S(=O)(=O)N2CC(N(C3CCOCC3)S(C)(=O)=O)C2)c1`: the “% Inhibition” value is reported as -14% and the Z score stood at 2.57.

For `C=CCn1cc(CN(C)CCc2cnn(C)c2)cn1`, the “% Inhibition” value was -21% and the Z score was found to be 3.02.

Regarding `CCCN1CC[C@H](CNc2nnc(C3CC3)s2)C1`, the “% Inhibition” value was -12% and the Z score was 1.03.

On to `CC[C@@H](CC#N)NC(=O)c1c[nH]c2cc(Cl)c(OC)cc12`, for which the “% Inhibition” value turned out to be 17% and the Z score is listed as -2.21.

Take `CC(C)CN1CC(=O)N[C@@H]1c1nc2ccc(F)cc2s1`: the “% Inhibition” value was 4% and the Z score is listed as -0.61.

As to `C[C@@H](C(=O)N1CCOCC1)S(=O)(=O)c1cc(F)ccc1F`, the “% Inhibition” value came to 4% and the Z score is reported as -0.63.

Turning to `COc1ccc(C(=O)N[C@@H](Cc2ccccc2)c2ccccc2)cc1Oc1nc(Cc2ccc(F)cc2)ns1`, the “% Inhibition” value was -7% and the Z score is 0.77.

For `CC(=O)c1cc(Br)ccc1NCC(=O)N(C)CCC#N`, the “% Inhibition” value is -26% and the Z score came to 2.93.

With `CCOc1ccccc1/N=C(\NCCc1c(C)nn(C)c1C)NC(=O)c1ccc(F)cc1`, the “% Inhibition” value is reported as -4% and the Z score was determined as 0.76.

Regarding `CC(NC(=O)C1CCC(=O)N1)c1ccc(Oc2ccccc2)cc1` (stereo not drawn), the “% Inhibition” value is given as -10% and the Z score is on record as 0.96.

Take `FC(F)(F)c1ccc2sc(N3CCc4cncnc4C3)nc2c1`: the “% Inhibition” value is -17% and the Z score was 1.72.

On to `CCn1cnc2c(N(C)C[C@H](O)c3cccnc3)ncnc21`, for which the “% Inhibition” value is on record as -3% and the Z score was found to be 0.42.

`Cc1ccc(S(=O)(=O)Cc2nnn(C)n2)cc1`: the “% Inhibition” value was -5% and the Z score was 0.51.

In the case of `CCCCNC(=O)N1CC[C@H](c2ccn[nH]2)C1`, the “% Inhibition” value is on record as -16% and the Z score was determined as 1.68.

As to `CCCc1noc(C(C)NC2CCN(S(C)(=O)=O)CC2CC)n1` (stereo not drawn), the “% Inhibition” value was -1% and the Z score was 0.13.

As to `O=C(CN1CCC2(CC1)NC(=O)N(Cc1ccc(Cl)cc1)C2=O)Nc1ccc(F)cc1F`, the “% Inhibition” value came to 30% and the Z score is -0.84.

`C[C@@H](c1cccc(O)c1)N1C(=O)NC(CC(F)(F)F)C1=O` (stereo partly drawn): the “% Inhibition” value is on record as -10% and the Z score stood at 1.48.

Consider `CCN1CCN(C(=O)CCc2nnc3ccc(N4CCOCC4)nn23)CC1`, for which the “% Inhibition” value is on record as -19% and the Z score worked out at 1.86.

As to `CCC(NC1CC(C)(c2ccccc2)C1)C1CCCO1` (stereo not drawn), the “% Inhibition” value is -6% and the Z score is given as 0.66.

`Cc1cccc(Cl)c1NC(=O)N(C)CCN(C)C`: the “% Inhibition” value is -9% and the Z score is 1.39.

For the molecule `COc1ccc(C(=O)N2c3cc(C)ccc3[C@](C)(c3ccccc3)CC2(C)C)cc1`, the “% Inhibition” value was -8% and the Z score is on record as 1.04.

Regarding `Cc1ccc(C(=O)NC2(c3nnc4n3CCCC4)CCC2)c(Cl)c1`, the “% Inhibition” value worked out at 9% and the Z score is recorded as -1.02.

Regarding `O=C(Cc1c[nH]c2ccccc12)Nc1ccn(CCc2ccncc2)n1`, the “% Inhibition” value is given as -4% and the Z score amounted to 0.51.

`O=C1NC2=Nc3ccccc3NC(c3ccccc3)=C2[C@H](c2ccc(O)cc2)N1`: the “% Inhibition” value is reported as -8% and the Z score came out at 1.1.

`Cc1nccc(O[C@H]2CCCN(S(C)(=O)=O)C2)n1`: the “% Inhibition” value amounted to 0% and the Z score is 0.09.

On to `CN1C(=O)C2(CCN(C(=O)CN3C(=O)OC(C)(C)C3=O)CC2)c2ccccc21`, for which the “% Inhibition” value is given as -7% and the Z score is reported as 0.88.

With `c1ccc(-c2nc3cnccn3c2Nc2ccc3c(c2)OCCO3)cc1`, the “% Inhibition” value was -21% and the Z score worked out at 3.09.

Turning to `COc1ccc(CC(=O)Nc2csc3nc(=O)c(C)nn23)cc1OC`, the “% Inhibition” value is given as -4% and the Z score was 0.34.

As for `O=S(=O)(Nc1ccc(Cl)c(Cl)c1)N1CCCCCC1`, the “% Inhibition” value is listed as -3% and the Z score is given as 0.5.

On to `N#CCCN(Cc1ccco1)C(=O)Cn1cc(C(F)(F)F)ccc1=O`, for which the “% Inhibition” value is given as -9% and the Z score is 1.44.

As a reminder, the % Inhibition is the drop in the measured response relative to a control, in per cent.
